Assay results reported in the supplement of paper PMC4967469.
The IC50 comes from the fitted curve, where viability falls to half of the control; a limit (>, <) means that the fit lies beyond the doses tested. AUC sums up the same curve from the lowest dose to the 256-fold higher top dose; values near 1 show little effect. An inferred top dose was derived from the fitted curves, not read from the paper.

compound: CCn1cc(-c2ccnc3[nH]c(-c4cccc(CN(C)C)c4)cc23)c(-c2ccc(NC(=O)N(C)C)cc2)n1 [GSK1070916]; assay: Viability of human cancer cell lines after 72 h of drug (GDSC screen); conditions: top dose inferred
Experimental: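 Human cancer cell lines in 384-well plates, medium with 10% serum, drug for 72 h over a 256-fold dose range (nine 2-fold or five 4-fold steps up to the top dose). Adherent lines were fixed and stained with the nucleic acid dye Syto60, suspension lines read with resazurin; signal relative to control wells, capped at 0 and 100%. One two-parameter sigmoid per drug and line, fitted in a mixed model over all curves with the slope shared within a line.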

Row | Cell Line | AUC | IC50 [nM]
1 | FLO-1 (oesophagus, adherent, top dose 2.56 µM) | 0.898 | > 2560
2 | FTC-133 (thyroid, adherent, top dose 2.56 µM) | 0.986 | > 2560
3 | FU97 (stomach, adherent, top dose 2.56 µM) | 0.969 | > 2560
4 | FU-OV-1 (ovary, adherent, top dose 2.56 µM) | 0.885 | > 2560
5 | Farage (B-cell lymphoma, suspension, top dose 2.56 µM) | 0.943 | > 2560
6 | G-292 Clone A141B1 (osteosarcoma, adherent, top dose 2.56 µM) | 0.869 | > 2560
7 | G-361 (melanoma, adherent, top dose 2.56 µM) | 0.957 | > 2560
8 | G-401 (kidney, adherent, top dose 2.56 µM) | 0.771 | 1080
9 | G-402 (soft tissue, adherent, top dose 2.56 µM) | 0.811 | 1950
10 | G-MEL (melanoma, adherent, top dose 2.56 µM) | 0.963 | > 2560
11 | GAMG (glioma, adherent, top dose 2.56 µM) | 0.452 | 117
12 | GB-1 (glioma, adherent, top dose 2.56 µM) | 0.948 | > 2560
13 | GCIY (stomach, adherent, top dose 2.56 µM) | 0.972 | > 2560
14 | GCT (soft tissue, adherent, top dose 2.56 µM) | 0.989 | > 2560
15 | GDM-1 (acute myeloid leukaemia, suspension, top dose 2.56 µM) | 0.304 | 46.4
16 | GI-1 (glioma, adherent, top dose 2.56 µM) | 0.931 | > 2560
17 | GI-ME-N (neuroblastoma, adherent, top dose 2.56 µM) | 0.809 | 1990
18 | GMS-10 (glioma, adherent, top dose 2.56 µM) | 0.988 | > 2560
19 | GOTO (neuroblastoma, adherent, top dose 2.56 µM) | 0.972 | > 2560
20 | GP5d (large intestine, adherent, top dose 2.56 µM) | 0.952 | > 2560

Row | Cell Line | AUC | IC50 [nM]
21 | GR-ST (lymphoblastic leukaemia, suspension, top dose 2.56 µM) | 0.826 | 2010
22 | GRANTA-519 (B-cell lymphoma, suspension, top dose 2.56 µM) | 0.948 | > 2560
23 | GT3TKB (stomach, adherent, top dose 2.56 µM) | 0.99 | > 2560
24 | H4 (glioma, adherent, top dose 2.56 µM) | 0.826 | 1530
25 | H9 (lymphoid neoplasm, suspension, top dose 2.56 µM) | 0.957 | > 2560
26 | H290 (mesothelioma, adherent, top dose 2.56 µM) | 0.956 | > 2560
27 | H513 (mesothelioma, semi-adherent, top dose 2.56 µM) | 0.982 | > 2560
28 | H2369 (mesothelioma, adherent, top dose 2.56 µM) | 0.984 | > 2560
29 | H2373 (mesothelioma, adherent, top dose 2.56 µM) | 0.979 | > 2560
30 | H2461 (mesothelioma, adherent, top dose 2.56 µM) | 0.974 | > 2560
31 | H2591 (mesothelioma, adherent, top dose 2.56 µM) | 0.922 | > 2560
32 | H2595 (mesothelioma, adherent, top dose 2.56 µM) | 0.922 | > 2560
33 | H2722 (mesothelioma, adherent, top dose 2.56 µM) | 0.946 | > 2560
34 | H2731 (mesothelioma, adherent, top dose 2.56 µM) | 0.844 | 2240
35 | H2795 (mesothelioma, adherent, top dose 2.56 µM) | 0.781 | 1050
36 | H2803 (mesothelioma, adherent, top dose 2.56 µM) | 0.976 | > 2560
37 | H2804 (mesothelioma, adherent, top dose 2.56 µM) | 0.947 | > 2560
38 | H2818 (mesothelioma, adherent, top dose 2.56 µM) | 0.969 | > 2560
39 | H2869 (mesothelioma, adherent, top dose 2.56 µM) | 0.882 | > 2560
40 | H3118 (head and neck, adherent, top dose 2.56 µM) | 0.914 | > 2560
